This is an account of results in the supplement of paper PMC7125110.

± gives the standard error. Variants at the floor of the assay are shown more often than the library holds them.

The labels stand for the following.
B1: glmS ribozyme (parent)
chain: AUAAAAGCGCCAGAACUACAGAAAUGUAGUUGACGAGGAGGAGGUUUAUCGAAUUUUCGGCGGAUGCCUCCAAA

Common to all, as to settings: with glucosamine-6-phosphate
The variants in data set [1] derive from B1. The data set is described as follows: self-cleavage kobs at 640 uM GlcN6P; higher = faster cleavage; RNA array. A digest of the protocol: (§1)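 Glucosamine-6-phosphate (40 μM to 10 mM) in HEPES/KCl/Mg(OAc)2 buffer was flowed over sequenced MiSeq chips, and tiles were imaged over ~14 h. Barcoded ribozyme variants there had been transcribed in situ by E. coli RNA polymerase and were tracked through a hybridised Cy3 probe at 37 °C. One- or two-exponential decay fits to per-tile medians, normalised to baseline and to non-cleaving reference variants, gave kobs. kcat and KM came from weighted Michaelis–Menten fits across concentrations.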

Data set [2] covers variants of B1. The data set is described as follows: self-cleavage kobs at 160 uM GlcN6P; higher = faster cleavage; RNA array. A digest of the protocol:
as §1

In data set [3] the parent is B1. The data set is described as follows: self-cleavage kobs at 2500 uM GlcN6P; higher = faster cleavage; RNA array. A digest of the protocol: as §1
Variants of B1 are the subject of data set [4]. The data set is described as follows: self-cleavage kobs at 10000 uM GlcN6P; higher = faster cleavage; RNA array. A digest of the protocol:
as §1

In the case of AUAAAAGCGGCAGAACUACAGAAAUGUAGUUGACGAGGAGGAGGUUUAUAGAAUUUUCGGUGGAUGCCUCCAAA [C10G C50A C61U], in the data set with glucosamine-6-phosphate [1], the “self-cleavage kobs at 640 uM GlcN6P” value is < 1e-05 s⁻¹.
On to AUAAAAGCGUCAGAACUACAGAAAUGUAGUUUACGAGGAGCAGGUUUAUCUAAUUUUCGGCGGAUGCAUCCAAA [C10U G32U G41C G51U C68A], for which, in the data set with glucosamine-6-phosphate [1], the “self-cleavage kobs at 640 uM GlcN6P” value was < 1e-05 s⁻¹. Moreover, in the data set with glucosamine-6-phosphate [2], the “self-cleavage kobs at 160 uM GlcN6P” value was < 1e-05 s⁻¹. The “self-cleavage kobs at 2500 uM GlcN6P” value with glucosamine-6-phosphate [3] was < 1e-05 s⁻¹.
Consider AUAAAAGCGGCAGAACUACAGAAAUGUAGUUGACAAGGAGGCGGUUUAUCGAAUUUUCGGCGGAUGCCUCCAAA [C10G G35A A42C], for which the “self-cleavage kobs at 640 uM GlcN6P” value with glucosamine-6-phosphate [1] is < 1e-05 s⁻¹. The “self-cleavage kobs at 2500 uM GlcN6P” value in the data set with glucosamine-6-phosphate [3] was < 1e-05 s⁻¹.
As for AUAAAAGCGUCAGAACUACAGAAAUGUAGUUGACGAGGAGGAGGUUUAUCGACUUUUCGGCGGAUACCUCCAAA [C10U A53C G66A], the “self-cleavage kobs at 640 uM GlcN6P” value in the data set with glucosamine-6-phosphate [1] was < 1e-05 s⁻¹.
Same read-out and setting: the result for AUAAAAGCGCACGAACUACAGAAAUGUAGUUGACGUGGAGGAGGUUUAUCGAAUUUUCGGCUGAUGCCUCCAAA [C11A A12C A36U G62U] reads < 1e-05 s⁻¹.
As for AUAAAAGCGUCACAACUACAGAAAUGUAGUUGACGAGGAGCAGGUUUAUCGAAUUUUCGGCGGCUGCCUCCAAA [C10U G13C G41C A64C], the “self-cleavage kobs at 640 uM GlcN6P” value with glucosamine-6-phosphate [1] is < 1e-05 s⁻¹. In addition, the “self-cleavage kobs at 2500 uM GlcN6P” value with glucosamine-6-phosphate [3] is < 1e-05 s⁻¹.
On to AUAAAAGCGCAAGAAAUACAGAAAUGUAGUUGACGAGGAGGAAGUUUAUCGAAUUUUCGGCGGAUGCCUCCAAA [C11A C16A G43A], for which the “self-cleavage kobs at 640 uM GlcN6P” value in the data set with glucosamine-6-phosphate [1] was < 1e-05 s⁻¹. In addition, the “self-cleavage kobs at 2500 uM GlcN6P” value with glucosamine-6-phosphate [3] was < 1e-05 s⁻¹.
On to AUAAAAGCGUCUGAACUACAGAAAUGUAGUUGACAAGGAGGAGGCUUAUCGAAGUUCCGGCGGGUGCCUCCAAA [C10U A12U G35A U45C U54G U57C A64G], for which the “self-cleavage kobs at 640 uM GlcN6P” value with glucosamine-6-phosphate [1] is < 1e-05 s⁻¹. Further, the “self-cleavage kobs at 160 uM GlcN6P” value with glucosamine-6-phosphate [2] is < 1e-05 s⁻¹. In addition, in the data set with glucosamine-6-phosphate [3], the “self-cleavage kobs at 2500 uM GlcN6P” value was < 1e-05 s⁻¹.
As to AUAAAAGCGUCAGAACUACAGAAAUGUAGUAGAAGAGGAGGAGGUUUAUCGAAUUUUCGGCGGAUGCCUCCAAA [C10U U31A C34A], in the data set with glucosamine-6-phosphate [1], the “self-cleavage kobs at 640 uM GlcN6P” value was < 1e-05 s⁻¹. Also, in the data set with glucosamine-6-phosphate [3], the “self-cleavage kobs at 2500 uM GlcN6P” value is < 1e-05 s⁻¹.
Take AUAAAAGCGCAAGAACUACAGAAAUGUAGUUGGCGAGGAGGAGGUUUCUCGAAUUUUCGGCGGAUGUCUCCAAA [C11A A33G A48C C67U]: the “self-cleavage kobs at 640 uM GlcN6P” value in the data set with glucosamine-6-phosphate [1] is < 1e-05 s⁻¹. Besides, the “self-cleavage kobs at 2500 uM GlcN6P” value in the data set with glucosamine-6-phosphate [3] is < 1e-05 s⁻¹.
As to AUAAAAGCGGCAGAACUACAGAAAUGUACUUGACGAGGAGGAGGUUUAUCGAAUUUUCGGCGGAUGCCUCCAAA [C10G G29C], in the data set with glucosamine-6-phosphate [1], the “self-cleavage kobs at 640 uM GlcN6P” value is < 1e-05 s⁻¹. In addition, the “self-cleavage kobs at 160 uM GlcN6P” value with glucosamine-6-phosphate [2] is < 1e-05 s⁻¹. Besides, in the data set with glucosamine-6-phosphate [4], the “self-cleavage kobs at 10000 uM GlcN6P” value was < 1e-05 s⁻¹.
Take AUAAAAGCGCAAGAGAUACAGAAAUGUAUUUGACGAGGAGGAGGUUUAUCGAAUUUUCGGCGGAUGCCUCCAAA [C11A A15G C16A G29U]: in the data set with glucosamine-6-phosphate [1], the “self-cleavage kobs at 640 uM GlcN6P” value worked out at 6.91e-05 ± 2.4e-05 s⁻¹. Besides, in the data set with glucosamine-6-phosphate [3], the “self-cleavage kobs at 2500 uM GlcN6P” value was found to be 0.000102 ± 2.4e-05 s⁻¹. For the same variant, in the data set with glucosamine-6-phosphate [4], the “self-cleavage kobs at 10000 uM GlcN6P” value is 0.000192 ± 3.5e-05 s⁻¹.
For AUAAAAGCGGCAGAACUACAGAAAUGUAAUUGACGAGGAGGAGGUUUAUCGAAUUUUCGGCGGAGGCCUCCAAA [C10G G29A U65G], the “self-cleavage kobs at 640 uM GlcN6P” value in the data set with glucosamine-6-phosphate [1] is < 1e-05 s⁻¹.
Take AUAAAAGCGUAAGAACUACAGAAAUGUAGUUGACGAGGAGGAGGUUUAUCGUAUUUUCGGCGGAUCCCUCCAAA [C10U C11A A52U G66C]: in the data set with glucosamine-6-phosphate [1], the “self-cleavage kobs at 640 uM GlcN6P” value was < 1e-05 s⁻¹.
Turning to AUAAAAGCGGCAGAACUACAGAAAUGUAGUCGACGAGGAGGAGGUUUAUCGAGUUUUCGGCGGAUGCCUCCAAA [C10G U31C A53G], the “self-cleavage kobs at 640 uM GlcN6P” value with glucosamine-6-phosphate [1] is < 1e-05 s⁻¹. Besides, the “self-cleavage kobs at 160 uM GlcN6P” value with glucosamine-6-phosphate [2] is < 1e-05 s⁻¹. The “self-cleavage kobs at 2500 uM GlcN6P” value in the data set with glucosamine-6-phosphate [3] was < 1e-05 s⁻¹.
As to AUAAAAGCGGCAGAACUACAGAAAUGUAGUUUAUGAGGAUCAGGUUUAUCGAAUUUUCGGCGGAUGCCUCCAAA [C10G G32U C34U G40U G41C], the “self-cleavage kobs at 640 uM GlcN6P” value in the data set with glucosamine-6-phosphate [1] is < 1e-05 s⁻¹. In addition, in the data set with glucosamine-6-phosphate [2], the “self-cleavage kobs at 160 uM GlcN6P” value is < 1e-05 s⁻¹. The “self-cleavage kobs at 2500 uM GlcN6P” value in the data set with glucosamine-6-phosphate [3] is < 1e-05 s⁻¹.
For the variant AUAAAAGCGCAAGAACUACAGAAAUGUAGUUGACGCGGAGGAGGUUUAUCGAAUUUCCGGCGGAUGCCUCCAAA [C11A A36C U57C], the “self-cleavage kobs at 640 uM GlcN6P” value in the data set with glucosamine-6-phosphate [1] is < 1e-05 s⁻¹. In the data set with glucosamine-6-phosphate [3], the “self-cleavage kobs at 2500 uM GlcN6P” value is < 1e-05 s⁻¹.
For AUAAAAGCGGCAGAACUACAGAAAUGUAGUUGACGAGCAGGAGGUUUAUCGAAUUUUCGGCGGAUGCCUCCAAA [C10G G38C], in the data set with glucosamine-6-phosphate [1], the “self-cleavage kobs at 640 uM GlcN6P” value was < 1e-05 s⁻¹. Also, in the data set with glucosamine-6-phosphate [2], the “self-cleavage kobs at 160 uM GlcN6P” value was < 1e-05 s⁻¹. For the same variant, the “self-cleavage kobs at 10000 uM GlcN6P” value in the data set with glucosamine-6-phosphate [4] was < 1e-05 s⁻¹.
